Reference: a collection of fitness landscapes (doi:10.1126/science.1257360)
Some of the results follow.

B1: PhoQ; a variant is named by its letters at X, in order, P23837 (parent)
chain: MKKLLRLFFPLSLRVRFLLATAAVVLVLSLAYGMVALIGYSVSFDKTTFRLLRGESNLFYTLAKWENNKLHVELPENIDKQSPTMTLIYDENGQLLWAQRDVPWLMKMIQPDWLKSNGFHEIEADVNDTSLLLSGDHSIQQQLQEVREDDDDAEMTHSVAVNVYPATSRMPKLTIVVVDTIPVELKSSYMVWSWFIYVLSANLLLVIPLLWVAAWWSLRPIEALAKEVRELEEHNRELLNPATTRELTSLVRNLNRLLKSERERYDKYRTTLTDLTHSLKTPLXXLQXXLRSLRSEKMSVSDAEPVMLEQISRISQQIGYYLHRASMRGGTLLSRELHPVAPLLDNLTSALNKVYQRKGVNISLDISPEISFVGEQNDFVEVMGNVLDNACKYCLEFVEISARQTDEHLYIVVEDDGPGIPLSKREVIFDRGQRVDTLRPGQGVGLAVAREITEQYEGKIVAGESMLGGARMEVIFGRQHSAPKDE

Variants of: B1
Test: enrichment ratio after two sorts for PhoP signalling (ratio (wild type AVST 3.29)); higher = more functional
Settings: with PhoP (E. coli)

Variant | enrichment ratio
AQWS | ≤ 0.25
RPVS | ≤ 0.25
HVDR | ≤ 0.25
CGFL | ≤ 0.25
IKYT | ≤ 0.25
STTH | 9.19
CVLF | ≤ 0.25
WDNM | ≤ 0.25
ANGP | ≤ 0.25
EMSG | ≤ 0.25
KSLE | ≤ 0.25
PTRK | ≤ 0.25
GELD | ≤ 0.25
HYNM | ≤ 0.25
GHLR | ≤ 0.25
NGCN | ≤ 0.25
LFNF | ≤ 0.25
HKWV | ≤ 0.25
ALRV | ≤ 0.25
YRAA | ≤ 0.25
YHPH | ≤ 0.25

Variant | enrichment ratio
QREV | ≤ 0.25
SPCG | 1.67
AKYY | ≤ 0.25
AQIC | 2.92
DTDP | ≤ 0.25
FGGH | ≤ 0.25
MFDL | ≤ 0.25
VIHD | ≤ 0.25
VLIF | ≤ 0.25
QCPP | ≤ 0.25
ISLN | ≤ 0.25
MPHM | ≤ 0.25
VRYA | ≤ 0.25
TYNK | ≤ 0.25
QCYN | ≤ 0.25
RTDD | ≤ 0.25
VCHP | ≤ 0.25
DDWF | ≤ 0.25
VDKW | ≤ 0.25
QHGA | ≤ 0.25
NWIW | ≤ 0.25

Variant | enrichment ratio
MNVV | 1.59
PLCK | ≤ 0.25
FNLY | ≤ 0.25
HVSM | ≤ 0.25
LRCP | ≤ 0.25
AANF | ≤ 0.25
NCFW | ≤ 0.25
LANW | ≤ 0.25
IYQE | ≤ 0.25
IVPD | ≤ 0.25
GQRL | ≤ 0.25
NEET | ≤ 0.25
EYLW | ≤ 0.25
PSND | ≤ 0.25
RCEG | ≤ 0.25
VTSY | 0.277
HNNY | ≤ 0.25
GCAS | ≤ 0.25
WNKE | ≤ 0.25
VHQA | 0.499
AYCI | ≤ 0.25

Variant | enrichment ratio
SMRY | ≤ 0.25
KSYD | ≤ 0.25
DSCS | ≤ 0.25
TCGM | 15.3
WAKE | ≤ 0.25
TWFI | ≤ 0.25
YFAT | ≤ 0.25
TGHE | 9.44
RGYW | ≤ 0.25
TWTQ | ≤ 0.25
VGAA | ≤ 0.25
PHWY | ≤ 0.25
FLWE | ≤ 0.25
AAPW | ≤ 0.25
LHMK | ≤ 0.25
FPVH | ≤ 0.25
NFNM | ≤ 0.25
TEWT | 12.8
YNMF | ≤ 0.25
RWHT | ≤ 0.25
EPAN | ≤ 0.25
